The text below walks through data of ChEMBL document CHEMBL1201862, “PubChem BioAssay data set” (2004).

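Test compounds were applied to cells in 96-well plates for 48 hours at 5 doses. GI50 = concentration required for 50% inhibition of growth.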 Activity calls are given as the source filed them. Cut-off read from the data, not from the text of the source: active = GI50 up to about 1.1 µM and inactive = higher. Bounds are passed on as bounds.

The assay deals with NCI-H322M. Put plainly: NCI anticancer screen, dose series, 48 h.
Take `OCCN(CO)CO`: the GI50 is inactive: > 100 µM.
Regarding `COC(=O)c1ccc(Cc2ccc(C(=O)OC)o2)o1`, the GI50 is inactive: > 378 µM.
To `COc1ccc(-c2oc3c(OC)c(OC)cc(O)c3c(=O)c2OC)cc1` belongs inactive: > 100 µM; to `CCCS(=O)(=O)Nc1ccc(Nc2c3ccccc3nc3ccccc23)c(OC)c1`, inactive: 4.26 µM; to `CC1=CCC2CC1NC(=O)CCOCCC(=O)NC2(C)C` (centres undefined), inactive: > 100 µM.
To `O=C(O)CNS(=O)(=O)c1ccc(NC(=O)c2ccc(F)cc2)cc1` belongs inactive: > 100 µM.
In the case of `COc1cc(CNc2nc3cc(C(F)(F)F)ccc3nc2-c2ccccc2)cc(OC)c1OC` it was inactive: 34.9 µM; in that of `CC1(c2nc3ccccc3[nH]2)CCC(CO)C(C)(C)O1` (centres undefined), inactive: > 100 µM; in that of `Clc1ccc(N/N=C(\c2ccccc2)c2ccccn2)nc1`, active: 0.074 µM.
Take `CCc1cccc(CC)c1NC(=O)/C(Cl)=C(/Cl)C(=O)O`: the GI50 is inactive: > 100 µM.
Take `Fc1ccc(C(=C2CCN(CCc3ccc4[nH]c(=S)[nH]c4c3)CC2)c2ccc(F)cc2)cc1`: the GI50 is inactive: 11.3 µM.
In the case of `C=C(Cl)[C@@](Cl)(CBr)CC[C@@H](Br)C(C)(C)Cl` it was active: 0.407 µM.
In the case of `O=C1CC(c2ccco2)C2(C(=O)NC(=O)NC2=O)C(c2ccco2)C1` (centres undefined) it was inactive: > 75 µM.
As to `Cc1c2ncccc2c(C)c2c1[nH]c1ccc(O)cc12`, the GI50 was inactive: 3.24 µM.
Regarding `CSc1ccccc1NC1=NCCO1`, the GI50 was inactive: > 100 µM.
In the case of `CC1=NC(C)(COC(=O)C2(C)NC(C)(CO)CO2)COC1=O` (centres undefined) it was inactive: > 100 µM; in that of `CCOC(=O)C(C(=O)c1ccccc1-c1ccccc1C(=O)O)=P(c1ccccc1)(c1ccccc1)c1ccccc1`, inactive: 28.4 µM.
For `O=C(O)Cc1ccc(Oc2nc3ccccc3nc2-c2ccccc2)cc1`, the GI50 is inactive: > 100 µM.
To `COc1cc(-c2oc3c(OC)c(O)cc(O)c3c(=O)c2OC)ccc1O` belongs inactive: 20.7 µM.
For `NC1=NCC(CN2CCOCC2)O1` (centres undefined), the GI50 was inactive: > 100 µM.
To `COc1nc(NC2OC(COC(C)=O)C(OC(C)=O)C(OC(C)=O)C2OC(C)=O)c2c(OC(C)=O)cc(=O)oc2n1` (centres undefined) belongs inactive: > 100 µM; to `O=C/C(=C1/C=Cc2cc([N+](=O)[O-])ccc2S1)c1ccccc1`, inactive: > 100 µM.
With `O=C(CC(C(=O)c1ccsc1)c1ccccc1)c1ccccc1` (centres undefined), the GI50 was inactive: > 100 µM.
Regarding `Nc1ncc2c(n1)-c1ccccc1OC2NC1CC1` (centres undefined), the GI50 was inactive: > 100 µM.
In the case of `C[C@]12CC/C(=N\O)C=C1CC[C@@H]1[C@@H]2CC[C@]2(C)C(=N/O)/C(=C/c3ccncc3)C[C@@H]12` it was inactive: 21.3 µM.
To `CCOC(=O)Oc1ccc(C(CNC(C)C)OC(=O)OCC)cc1OC(=O)OCC` (centres undefined) belongs inactive: > 100 µM; to `CCOC(=O)c1c(-c2ccc(Cl)cc2)c(C#N)c(=S)n(C2OC(CO)C(O)C(O)C2O)c1-c1ccccc1` (centres undefined), inactive: 30.9 µM.
To `Cc1cn(CCCCCOC(=O)NC(CCCNC(=N)N)C(=O)O)c(=O)[nH]c1=O` (centres undefined) belongs inactive: 69.7 µM; to `Cn1cc(S(=O)(=O)NC(=O)Nc2ccc(Cl)cc2)c2ccccc21`, inactive: > 100 µM.
`CCC12CN(C(=O)OC)C3C(Br)C1CCC(=O)C32` (centres undefined): the GI50 was inactive: > 100 µM.
In the case of `O=C1c2cc3c(cc2CC12Cc1cc4c(cc1C2=O)CCC4)CCC3`, the GI50 was inactive: > 100 µM.
With `O=c1c2c(nc3n1CCC3)sc1c(O)c(Br)ccc12`, the GI50 was inactive: 18.2 µM.
In the case of `CCCCC1(C2c3ccccc3Oc3ccccc32)C(=O)N(c2ccccc2)N(c2ccccc2)C1=O` it was inactive: > 88.9 µM; in that of `CCOC(=O)c1c(Nc2ccccc2)sc2cccnc12`, inactive: 3.59 µM.
